Source: the supplement of paper PMC4604168 (melanoma cell lines)
The list shows a part of the results. Most values come without repeats; read them as rough.

Legend:
Assay in all cases: cell count relative to DMSO control; melanoma cells; higher = more viable cells
Conditions in all cases: library dose: low library concentration; 72 h
MZ2-MEL = system: MZ2-MEL
MeWo = system: MeWo
RPMI7951 = system: RPMI7951
RVH-421 = system: RVH-421
SkMel28 = system: SkMel28
SkMel2 = system: SkMel2
SkMel30 = system: SkMel30
UACC62 = system: UACC62
WM115 = system: WM115
WM1716 = system: WM1716
WM1745 = system: WM1745
WM3526 = system: WM3526
WM3619 = system: WM3619
WM451Lu = system: WM451Lu
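Also: cell number obtained by counting DAPI-stained nuclei in high-throughput microscope images with image analysis software, screen run in 1,536-well plates.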

SMILES | cell count (MZ2-MEL) | cell count (MeWo) | cell count (RPMI7951) | cell count (RVH-421) | cell count (SkMel28) | cell count (SkMel2) | cell count (SkMel30) | cell count (UACC62) | cell count (WM115) | cell count (WM1716) | cell count (WM1745) | cell count (WM3526) | cell count (WM3619) | cell count (WM451Lu)
O=C(Nc1cc(C(F)(F)F)cc(C(F)(F)F)c1)c1cc(Cl)ccc1O + C[C@@H](Oc1cc(-c2cnn(C3CCNCC3)c2)cnc1N)c1c(Cl)ccc(F)c1Cl [Crizotinib] (first compound 0.016 µM, partner dose 0.2 µM) | 111% | 93.1% | 134% | 115% | 95.4% | 110% | 99% | 93.3% | 115% | 100% | 108% | 102% | 103% | 113%
O=C(Nc1cc(C(F)(F)F)cc(C(F)(F)F)c1)c1cc(Cl)ccc1O + CC(=O)c1c(C)c2cnc(Nc3ccc(N4CCNCC4)cn3)nc2n(C2CCCC2)c1=O [palbociclib] (first compound 0.016 µM, partner dose 0.04 µM) | 85.1% | 66.8% | 70.6% | 97.1% | 60.8% | 80.7% | 62.7% | 73.6% | 75.1% | 64.8% | 80.3% | 71.8% | 58.2% | 127%
O=C(O)[C@@H]1[O][Sb](=[O])([O][Sb]2(=[O])[O][C@H]([C@H](O)CO)[C@H](O)[C@H](C(=O)O)[O]2)[O][C@H]([C@H](O)CO)[C@@H]1O (stereo partly specified) [stibogluconate] + Cc1nc(Nc2ncc(C(=O)Nc3c(C)cccc3Cl)s2)cc(N2CCN(CCO)CC2)n1 [dasatanib] (first compound 2 µM, partner dose 0.004 µM) | 69.6% | 91.7% | 66.2% | 77.5% | 67.3% | 93.9% | 86.6% | 81.7% | 68.6% | 56.9% | 62.7% | 96.3% | 88.9% | 93%
O=C(O)c1ccc2c(c1)nc(Nc1cccc(Cl)c1)c1ccncc12 + Nc1nc(F)nc2c1ncn2[C@@H]1O[C@H](CO)[C@@H](O)[C@@H]1O [fludarabine] (first compound 0.4 µM, partner dose 0.2 µM) | 93.6% | 37.6% | 111% | 190% | 65% | 9.26% | 20.6% | 104% | 89.3% | 83.2% | 105% | 26.8% | 115% | 74.3%
O=C(O)c1ccc2c(c1)nc(Nc1cccc(Cl)c1)c1ccncc12 + COCC[n+]1c2c(n(Cc3cnccn3)c1C)C(=O)c1ccccc1C2=O [YM155] (first compound 0.4 µM, partner dose 0.0004 µM) | 69.9% | 100% | 101% | 110% | 88.4% | 102% | 81.8% | 76.9% | 96.9% | 98.1% | 116% | 69.5% | 101% | 70.5%
O=C(Nc1cc(C(F)(F)F)cc(C(F)(F)F)c1)c1cc(Cl)ccc1O + Cc1ccc(Nc2nccc(N(C)c3ccc4c(C)n(C)nc4c3)n2)cc1S(N)(=O)=O [Pazopanib] (first compound 0.016 µM, partner dose 0.4 µM) | 84.1% | 108% | 98.2% | 94.8% | 97.1% | 102% | 101% | 105% | 104% | 85.1% | 95.9% | 109% | 109% | 117%
O=C(O)[C@@H]1[O][Sb](=[O])([O][Sb]2(=[O])[O][C@H]([C@H](O)CO)[C@H](O)[C@H](C(=O)O)[O]2)[O][C@H]([C@H](O)CO)[C@@H]1O (stereo partly specified) [stibogluconate] + C=CCNC1=C2C[C@@H](C)C[C@H](OC)[C@H](O)[C@@H](C)/C=C(\C)[C@H](OC(N)=O)[C@@H](OC)/C=C\C=C(/C)C(=O)NC(=CC1=O)C2=O [Tanespimycin] (first compound 2 µM, partner dose 0.002 µM) | 111% | 106% | 127% | 150% | 101% | 115% | 122% | 113% | 103% | 119% | 110% | 98.1% | 126% | 125%
O=C(O)[C@@H]1[O][Sb](=[O])([O][Sb]2(=[O])[O][C@H]([C@H](O)CO)[C@H](O)[C@H](C(=O)O)[O]2)[O][C@H]([C@H](O)CO)[C@@H]1O (stereo partly specified) [stibogluconate] + CCCS(=O)(=O)Nc1ccc(F)c(C(=O)c2c[nH]c3ncc(Cl)cc23)c1F [PLX4720] (first compound 2 µM, partner dose 0.08 µM) | 78.5% | 101% | 108% | 81.9% | 101% | 96.5% | 119% | 67.4% | 97.2% | 90.6% | 98.1% | 74% | 92.2% | 101%
O=C(Nc1cc(C(F)(F)F)cc(C(F)(F)F)c1)c1cc(Cl)ccc1O + CNC(=O)c1cc(Oc2ccc(NC(=O)Nc3ccc(Cl)c(C(F)(F)F)c3)cc2)ccn1 [sorafenib] (first compound 0.016 µM, partner dose 0.4 µM) | 83.6% | 87.5% | 88.5% | 102% | 81.3% | 107% | 89.9% | 91.3% | 95.2% | 82.8% | 113% | 66.7% | 92.9% | 100%
O=C(Nc1cc(C(F)(F)F)cc(C(F)(F)F)c1)c1cc(Cl)ccc1O + Cn1sc(=O)n(Cc2ccccc2)c1=O [TDZD-8] (first compound 0.016 µM, partner dose 0.4 µM) | 97.8% | 93.8% | 89.2% | 113% | 118% | 94.2% | 111% | 115% | 98.3% | 101% | 89.7% | 107% | 97.2% | 106%
O=C(Nc1cc(C(F)(F)F)cc(C(F)(F)F)c1)c1cc(Cl)ccc1O + Cc1cc(Nc2cc(N3CCN(C)CC3)nc(/C=C/c3ccccc3)n2)n[nH]1 [ENMD2076] (first compound 0.016 µM, partner dose 0.04 µM) | 103% | 105% | 112% | 82.9% | 84.4% | 99.9% | 86% | 100% | 102% | 79.1% | 99.6% | 108% | 91.6% | 83.9%
O=C(Nc1cc(C(F)(F)F)cc(C(F)(F)F)c1)c1cc(Cl)ccc1O + O=C(/C=C/c1cccnc1)NCCCCC1CCN(C(=O)c2ccccc2)CC1 [FK866] (first compound 0.016 µM, partner dose 0.01 µM) | 62.6% | 91.1% | 94.3% | 89.4% | 97% | 82.2% | 112% | 98.3% | 108% | 96.3% | 88.9% | 112% | 86.8% | 97.6%
O=C(O)c1ccc2c(c1)nc(Nc1cccc(Cl)c1)c1ccncc12 + COc1ccc(Cl)c(Nc2nc3ccccc3nc2NS(=O)(=O)c2cccc(NC(=O)C(C)(C)N)c2)c1 [XL147] (first compound 0.4 µM, partner dose 0.8 µM) | 87.8% | 86.6% | 81.8% | 106% | 111% | 99.6% | 91.8% | 101% | 111% | 76.6% | 75.7% | 84.1% | 95.3% | 91.5%
O=C(Nc1cc(C(F)(F)F)cc(C(F)(F)F)c1)c1cc(Cl)ccc1O + C=C(c1ccc(C(=O)O)cc1)c1cc2c(cc1C)C(C)(C)CCC2(C)C [Bexarotene] (first compound 0.016 µM, partner dose 2 µM) | 93% | 87.9% | 101% | 112% | 86.9% | 104% | 108% | 95.9% | 91.6% | 97.3% | 86.1% | 84.6% | 81% | 82.3%
O=C(O)c1ccc2c(c1)nc(Nc1cccc(Cl)c1)c1ccncc12 + Cc1nc(Nc2ncc(C(=O)Nc3c(C)cccc3Cl)s2)cc(N2CCN(CCO)CC2)n1 [dasatanib] (first compound 0.4 µM, partner dose 0.004 µM) | 75% | 90.1% | 72.4% | 83.1% | 91.1% | 91.9% | 79.1% | 84.8% | 88.5% | 67.8% | 78.1% | 101% | 86.1% | 78.4%
O=C(Nc1cc(C(F)(F)F)cc(C(F)(F)F)c1)c1cc(Cl)ccc1O + CN(c1ncccc1CNc1nc(Nc2ccc3c(c2)CC(=O)N3)ncc1C(F)(F)F)S(C)(=O)=O [PF562271] (first compound 0.016 µM, partner dose 0.08 µM) | 95.9% | 106% | 85.2% | 90.8% | 81% | 90.5% | 95.1% | 103% | 82.6% | 88.2% | 81% | 78.1% | 80.5% | 87.6%
O=C(O)c1ccc2c(c1)nc(Nc1cccc(Cl)c1)c1ccncc12 + C=CCNC1=C2C[C@@H](C)C[C@H](OC)[C@H](O)[C@@H](C)/C=C(\C)[C@H](OC(N)=O)[C@@H](OC)/C=C\C=C(/C)C(=O)NC(=CC1=O)C2=O [Tanespimycin] (first compound 0.4 µM, partner dose 0.002 µM) | 85.7% | 90.8% | 122% | 111% | 103% | 96.3% | 72.2% | 90.5% | 102% | 84.2% | 93.7% | 74% | 109% | 84%
O=C(O)c1ccc2c(c1)nc(Nc1cccc(Cl)c1)c1ccncc12 + CC(=O)c1c(C)c2cnc(Nc3ccc(N4CCNCC4)cn3)nc2n(C2CCCC2)c1=O [palbociclib] (first compound 0.4 µM, partner dose 0.04 µM) | 84% | 76% | 82.7% | 99.4% | 77.2% | 87.7% | 74.4% | 72.6% | 85.7% | 53.5% | 81.9% | 47.5% | 85.2% | 103%
O=C(O)[C@@H]1[O][Sb](=[O])([O][Sb]2(=[O])[O][C@H]([C@H](O)CO)[C@H](O)[C@H](C(=O)O)[O]2)[O][C@H]([C@H](O)CO)[C@@H]1O (stereo partly specified) [stibogluconate] + CC(=O)c1c(C)c2cnc(Nc3ccc(N4CCNCC4)cn3)nc2n(C2CCCC2)c1=O [palbociclib] (first compound 2 µM, partner dose 0.04 µM) | 83.7% | 89.2% | 68.5% | 86% | 94% | 87.1% | 54.3% | 74.8% | 81.5% | 69.8% | 60.2% | 59.8% | 72.8% | 78.6%
